Results reported in ChEMBL document CHEMBL4888484, “Replenishing the malaria drug discovery pipeline: Screening and hit evaluation of the MMV Hit Generation Library 1 (HGL1) against asexual blood stage Plasmodium falciparum ,using a nano luciferase reporter read-out” (2022).
About 540 (0.36%) of roughly 150,000 compounds showed an effect of 50% or more. This is one part of the list.

What follows are compounds tested on Plasmodium falciparum (assay: Primary screen in NF54 nanoGlo assay, in single point, at 2uM, 72h; a lower Z score goes with more inhibition). Details: timepoint 72 hour.
Assay type: functional, Erythrocyte
In the case of `Cc1cc(=O)n2c(=O)c(/C=C/c3ccc(Cl)cc3)n[nH]c2n1`, the “% Inhibition” value is reported as -19% and the Z score is reported as 2.18.
In the case of `CC(C)[C@@]1(CO)CCCN(C(=O)c2csc3ccccc23)C1`, the “% Inhibition” value is reported as -8% and the Z score is reported as 1.36.
With `CCN1CCCC[C@@H]1CNCc1cc(C#CCO)cs1` the “% Inhibition” value was 7% and the Z score was -1.39.
For `O=C(COCC(=O)Nc1ccccc1)NC[C@H]1CCCO1`, the “% Inhibition” value was -4% and the Z score was 0.47.
In the case of `Cc1cc(C)cc(N(CCC#N)C(=O)COC(=O)CCc2c(C)[nH]c(=O)[nH]c2=O)c1`, the “% Inhibition” value is reported as -3% and the Z score is reported as 0.38.
`COc1ccc(Cn2ccc(C3CC3)n2)cc1F` was tested, and the “% Inhibition” value was -7% and the Z score was 0.63.
In the case of `COc1ccc(Br)c(CN(CC#N)S(=O)(=O)N(C)C)c1`, the “% Inhibition” value is reported as -8% and the Z score is reported as 1.27.
With `Cc1[nH]ncc1C(=O)N1CCC=C(F)C1` the “% Inhibition” value was -8% and the Z score was 0.99.
With `Cc1nc([C@H](C)NS(=O)(=O)c2ccc(C)c(N(C)C)c2)cs1` the “% Inhibition” value was -2% and the Z score was 0.3.
In the case of `COc1cc(NC(=O)N[C@@H]2CCC[C@@H]2Oc2cnn(C)c2)n(C)n1`, the “% Inhibition” value is reported as -7% and the Z score is reported as 0.69.
With `Cc1cc(NC(=O)CN(C(C)C)C2CC2)no1` the “% Inhibition” value was -5% and the Z score was 0.54.
For `COc1ccc(CNC(=O)CC2CCN(C(=O)c3ccc(C)cc3)CC2)cc1`, the “% Inhibition” value was -7% and the Z score was 1.27.
In the case of `CC(C)c1cccc(-n2cc(O)c(C(=O)N3CC[C@@](O)(C(N)=O)C3)n2)c1`, the “% Inhibition” value is reported as -5% and the Z score is reported as 0.54.
In the case of `Cn1cc(-c2ccc3c(c2)OCC[C@@H]2CC[C@H](O)[C@@H](CNC(=O)[C@@H]4CN(C5CCC5)CCN4C3=O)O2)cn1`, the “% Inhibition” value is reported as 3% and the Z score is reported as -0.38.
For `CCc1nn(C)c(OC)c1CNC(=O)CCN1c2ccccc2CC[C@@H]1C`, the “% Inhibition” value was 4% and the Z score was -0.59.
With `COc1ccc(CC[C@H](C)NC(=O)Cc2csc(C)n2)cc1` the “% Inhibition” value was 1% and the Z score was -0.15.
In the case of `CO[C@H]1CCCN(C(=O)c2cn(CCCc3ccccc3)nn2)C1`, the “% Inhibition” value is reported as -19% and the Z score is reported as 1.67.
In the case of `COc1ccc(NC(=O)CCC2CCN(C/C=C/c3ccccc3OC)CC2)c(OC)c1`, the “% Inhibition” value is reported as -25% and the Z score is reported as 2.26.
For `CC(C)Oc1cccc(C=C(Cc2ccccc2)c2nccc(=O)[nH]2)c1`, the “% Inhibition” value was -4% and the Z score was 0.72.
With `CC(C)Cn1nc(C(=O)NC2CCCC2)c2c1CCNC2` the “% Inhibition” value was -5% and the Z score was 0.66.
`CCCC[C@H](CC)C(=O)Nc1cc(S(C)(=O)=O)ccc1Cl` was tested, and the “% Inhibition” value was -3% and the Z score was 0.59.
With `CCCN1CC2(CCN(c3cc(CC)nc(C)n3)CC2)C[C@H]1C(=O)O` the “% Inhibition” value was 2% and the Z score was -0.3.
With `COc1ccc(Cc2nc([C@H]3CCOC3)n(CCO)n2)cc1OC` the “% Inhibition” value was -1% and the Z score was 0.17.
With `O=C(c1ccno1)N1CC[C@H]2[C@H](CCC(=O)N2CCc2cccs2)C1` the “% Inhibition” value was 0% and the Z score was 0.03.
In the case of `Cc1n[nH]c(C)c1-c1ncccc1C(=O)N1CCCC1`, the “% Inhibition” value is reported as -6% and the Z score is reported as 0.58.
For `COc1nc(OC)nc(-c2c(Cl)cccc2OC)n1`, the “% Inhibition” value was 9% and the Z score was -1.18.
With `Cn1ncnc1NC(=O)c1cccc(-n2cccn2)n1` the “% Inhibition” value was -8% and the Z score was 0.9.
In the case of `Cc1cc(C)n(C)c(=O)c1C(=O)N(CCc1ccccc1)C[C@H]1CCCN(C)C1`, the “% Inhibition” value is reported as -22% and the Z score is reported as 2.41.
`CCN(C1CCN(Cc2c(C)nc3ccccn23)CC1)S(C)(=O)=O` was tested, and the “% Inhibition” value was -8% and the Z score was 1.13.
With `Nc1c2c(-c3ccc(F)cc3)nc(N3CCN(CCc4ccccc4)CC3)nc2nn1-c1ccc(Cl)cc1` the “% Inhibition” value was -10% and the Z score was 1.17.
In the case of `CN(C)c1cccc(-c2nnc(NS(=O)(=O)c3ccoc3)o2)c1`, the “% Inhibition” value is reported as -4% and the Z score is reported as 0.37.
With `CC(C)OCCNc1nc(C2CC2)nc2[nH]ccc12` the “% Inhibition” value was 3% and the Z score was -0.42.
`N[C@H]1CC[C@@H](C(=O)N(CCc2ccc(Cl)cc2)Cc2cccnc2)C1` was tested, and the “% Inhibition” value was 6% and the Z score was -0.59.
For `COC(=O)c1cc2n(n1)C[C@@](C)(C(=O)NC1CCC(C)CC1)N(Cc1ccccc1)C2=O` (stereo partly drawn), the “% Inhibition” value was 15% and the Z score was -1.74.
`O=C([C@H]1CCOC1)N1CCC(c2nccn2CC2CC2)CC1` was tested, and the “% Inhibition” value was -6% and the Z score was 0.92.
With `C[C@H]1CN(S(=O)(=O)c2ccc3c(c2)OCCCO3)C[C@]1(O)C1CC1` the “% Inhibition” value was -7% and the Z score was 1.03.
For `C=C(C)CS(=O)(=O)N1CCC(c2ccnn2C)CC1`, the “% Inhibition” value was 5% and the Z score was -0.63.
For `O=C1C[C@@H](c2ccc(Cl)cc2)n2nc(NC(=O)c3cccnc3)nc2N1`, the “% Inhibition” value was 35% and the Z score was -3.94.
In the case of `CC(C)c1cc(N(C)CCC2(O)CCCC2)nc(N)n1`, the “% Inhibition” value is reported as -16% and the Z score is reported as 1.7.
With `O=C(N[C@H]1CCOc2ccccc21)c1ccc(S(=O)(=O)N2CCCC2)cc1` the “% Inhibition” value was -17% and the Z score was 2.17.
In the case of `COc1cc(CN2C(=O)C(C)C(C)C2=O)ccn1` (stereo not drawn), the “% Inhibition” value is reported as -12% and the Z score is reported as 1.96.
For `Cc1ccc(Cc2nsc(NCc3ccc(F)cc3)n2)cc1`, the “% Inhibition” value was -16% and the Z score was 1.53.
For `Cn1ccc(NC(=O)C(c2ccccc2)c2ccccc2)n1`, the “% Inhibition” value was -5% and the Z score was 0.68.
In the case of `[O-][n+]1c(-c2ccc(Br)cc2)nc2ccc(Cl)cn21`, the “% Inhibition” value is reported as -12% and the Z score is reported as 2.37.
For `O=C(Nc1ccn(C2CCCCC2)n1)N1CCOCC1`, the “% Inhibition” value was -9% and the Z score was 1.42.
In the case of `O=C(CC[C@@H]1CNC(=O)[C@@H]2C[C@H](NCc3ccccn3)CN12)NCc1ccc(F)cc1`, the “% Inhibition” value is reported as 26% and the Z score is reported as -2.91.
For `O=C(NCCN1CCCCC1)c1csc(NC(=O)c2ccccc2F)n1`, the “% Inhibition” value was 6% and the Z score was -1.
`CC(C)c1nnc(-c2coc(S(=O)(=O)N3CCCC[C@@H]3C)c2)o1` was tested, and the “% Inhibition” value was 4% and the Z score was -0.5.
In the case of `Cc1noc(CNC(=O)N2Cc3cc(Br)ccc3C[C@@H]2C)n1`, the “% Inhibition” value is reported as -2% and the Z score is reported as 0.39.
With `O=c1[nH]cccc1-c1cc(F)cc2cccnc12` the “% Inhibition” value was 13% and the Z score was -1.78.
For `COc1ccc(C2C(C(=O)N3CCCCC3)c3ccccc3C(=O)N2C)cc1` (stereo not drawn), the “% Inhibition” value was 3% and the Z score was -0.47.
`Cn1cc([C@@H]2CCCN2c2ccc(F)cn2)cn1` was tested, and the “% Inhibition” value was -12% and the Z score was 1.24.
`CC(C(=O)NCC(F)(F)F)N1CCCC(c2ncc[nH]2)C1` (stereo not drawn) was tested, and the “% Inhibition” value was 11% and the Z score was -1.33.
`N=C(NCc1ccccc1)NS(=O)(=O)c1cccs1` was tested, and the “% Inhibition” value was -2% and the Z score was 0.4.
